# In the supplement of paper PMC8728848:
# The other results are listed elsewhere or left out.
# Experiments:
# Test in all cases: glycan array binding signal (z-score within array); higher = stronger binding
# Details in all cases: glycan notation: IUPAC condensed, linker removed
# [1] = target: Fuc(a1-2)[Gal(a1-3)]Gal(b1-4)GlcNAc(b1-2)Man(a1-3)[Fuc(a1-2)[Gal(a1-3)]Gal(b1-4)GlcNAc(b1-2)Man(a1-6)]Man(b1-4)GlcNAc(b1-4)GlcNAc
# In short: (§1)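 From the Consortium for Functional Glycomics database, 3228 arrays were curated, keeping only those whose protein sequence was available. Binding is given as a within-array Z-score averaged across arrays sharing a protein sequence and across linkers. Negative Z-scores can be read as non-binding.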
# [2] = target: Fuc(a1-2)[Gal(a1-3)]Gal(b1-4)[Fuc(a1-3)]GlcNAc
# In short: as §1
# [3] = target: Fuc(a1-2)[Gal(a1-4)]Gal(b1-4)GlcNAc
# In short: as §1
# [4] = target: Fuc(a1-2)[GalNAc(a1-3)]Gal
# In short: as §1
# [5] = target: Fuc(a1-2)[GalNAc(a1-3)]Gal(b1-3)GlcNAc
# In short: as §1
# [6] = target: Fuc(a1-2)[GalNAc(a1-3)]Gal(b1-3)GlcNAc(b1-2)Man(a1-3)[Fuc(a1-2)[GalNAc(a1-3)]Gal(b1-3)GlcNAc(b1-2)Man(a1-6)]Man(b1-4)GlcNAc(b1-4)GlcNAc
# In short: as §1
# [7] = target: Fuc(a1-2)[GalNAc(a1-3)]Gal(b1-4)Glc
# In short: as §1
# [8] = target: Fuc(a1-2)[GalNAc(a1-3)]Gal(b1-4)GlcNAc
# In short: as §1
# [9] = target: Fuc(a1-2)[GalNAc(a1-3)]Gal(b1-4)GlcNAc(b1-2)Man(a1-3)[GalNAc(a1-3)[Fuc(a1-2)]Gal(b1-4)GlcNAc(b1-2)Man(a1-6)]Man(b1-4)GlcNAc(b1-4)GlcNAc
# In short: as §1
# [10] = target: Fuc(a1-2)[GalNAc(a1-3)]Gal(b1-4)GlcNAc(b1-3)Gal(b1-4)GlcNAc
# In short: as §1
# [11] = target: Fuc(a1-2)[GalNAc(a1-3)]Gal(b1-4)GlcNAc(b1-3)Gal(b1-4)GlcNAc(b1-3)Gal(b1-4)GlcNAc
# In short: as §1
# [12] = target: Fuc(a1-2)[GalNAc(a1-3)]Gal(b1-4)[Fuc(a1-3)]GlcNAc
# In short: as §1
# [13] = target: Fuc(a1-2)[GalNAc(a1-4)]Gal(b1-4)GlcNAc
# In short: as §1
# [14] = target: Fuc(a1-2)[GalNAc(b1-3)]Gal
# In short: as §1
# Fuc(a1-3)GlcNAc = target: Fuc(a1-3)GlcNAc
# In short: as §1
# [15] = target: Fuc(a1-3)[Gal(b1-4)]Glc6S
# In short: as §1
# [16] = target: Fuc(a1-3)[Gal(b1-4)]GlcNAc
# In short: as §1
# [17] = target: Fuc(a1-3)[Gal(b1-4)]GlcNAc(b1-2)Man(a1-3)[Fuc(a1-3)[Gal(b1-4)]GlcNAc(b1-2)Man(a1-6)]Man(b1-4)GlcNAc(b1-4)GlcNAc
# In short: as §1
# [18] = target: Fuc(a1-3)[Gal(b1-4)]GlcNAc(b1-2)Man(a1-6)[Gal(b1-4)GlcNAc(b1-2)Man(a1-3)]Man(b1-4)GlcNAc(b1-4)GlcNAc
# In short: as §1
# [19] = target: Fuc(a1-3)[Gal(b1-4)]GlcNAc(b1-3)Gal(b1-3)[Fuc(a1-4)]GlcNAc
# In short: as §1
# [20] = target: Fuc(a1-3)[Gal(b1-4)]GlcNAc(b1-4)Gal(b1-4)[Fuc(a1-3)]GlcNAc
# In short: as §1
# [21] = target: Fuc(a1-3)[Gal(b1-4)]GlcNAc(b1-4)Gal(b1-4)[Fuc(a1-3)]GlcNAc(b1-4)Gal(b1-4)[Fuc(a1-3)]GlcNAc
# In short: as §1
# [22] = target: Fuc(a1-3)[Gal(b1-4)]GlcNAc6S
# In short: as §1
# [23] = target: Fuc(a1-3)[Gal3S(b1-4)]Glc6S
# In short: as §1
# [24] = target: Fuc(a1-3)[Gal3S(b1-4)]GlcNAc
# In short: as §1
# [25] = target: Fuc(a1-3)[Gal3S(b1-4)]GlcNAc6S
# In short: as §1
# [26] = target: Fuc(a1-3)[GalNAc(b1-4)]GlcNAc
# In short: as §1
# [27] = target: Fuc(a1-3)[Neu5Ac(a2-3)]Gal(b1-4)GlcNAc(b1-3)GalNAc
# In short: as §1
# Fuc(a1-4)GlcNAc = target: Fuc(a1-4)GlcNAc
# In short: as §1
# Fuc(b1-3)GlcNAc = target: Fuc(b1-3)GlcNAc
# In short: as §1
# Gal(a1-2)Gal = target: Gal(a1-2)Gal
# In short: as §1
# Gal(a1-3)Gal = target: Gal(a1-3)Gal
# In short: as §1
# Gal(a1-3)Gal(b1-3)GlcNAc = target: Gal(a1-3)Gal(b1-3)GlcNAc
# In short: as §1
# Gal(a1-3)Gal(b1-4)Glc = target: Gal(a1-3)Gal(b1-4)Glc
# In short: as §1
# Gal(a1-3)Gal(b1-4)GlcNAc = target: Gal(a1-3)Gal(b1-4)GlcNAc
# In short: as §1
# [28] = target: Gal(a1-3)Gal(b1-4)[Fuc(a1-3)]GlcNAc
# In short: as §1
# [29] = target: Gal(a1-3)Gal(b1-4)[Fuc(a1-3)]GlcNAc(b1-2)Man(a1-3)[Gal(a1-3)Gal(b1-4)[Fuc(a1-3)]GlcNAc(b1-2)Man(a1-6)]Man(b1-4)GlcNAc(b1-4)GlcNAc
# In short: as §1
binder,measurement,setting,value
"DC-ASPGR (Homo sapiens), CLC10_HUMAN (protein) LDQNSKFQRDLVTLRTDFSNFTSNTVAEIQALTSQGSSLEETIASLKAEVEGFKQERQAVHSEMLLRVQQLVQDLKKLTCQVATLNNNASTEGTCCPVNWVEHQDSCYWFSHSGMSWAEAEKYCQLKNAHLVVINSREEQNFVQKYLGSAYTWMGLSDPEGAWKWVDGTDYATGFQNWKPGQPDDWQGHGLGGGEDCAHFHPDGRWNDDVCQRPYHWVCEAGLGQTSQESHVEPKSCDKTHTCPPCPAPELLGGPSVFLFPPKPKDTLMISRTPEVTCVVVDVSHEDPEVKFNWYVDGVEVHNAKTKPREEQFNSTYRVVSVLTVLHQDWLNGKEYKCKVSNKGLPSSIEKTISKAKGQPREPQVYTLPPSQEEMTKNQVSLTCLVKGFYPSDIAVEWESNGQPENNYKTTPPVLDSDGSFFLYSRLTVDKSRWQEGNVFSCSVMHEALHNHYTQK",glycan array binding signal (z-score),[1],-0.297
same,glycan array binding signal (z-score),[2],-0.108
same,glycan array binding signal (z-score),[3],-0.15
same,glycan array binding signal (z-score),[4],1.22
same,glycan array binding signal (z-score),[5],0.911
same,glycan array binding signal (z-score),[6],-0.203
same,glycan array binding signal (z-score),[7],0.817
same,glycan array binding signal (z-score),[8],0.732
same,glycan array binding signal (z-score),[9],-0.164
same,glycan array binding signal (z-score),[10],-0.035
same,glycan array binding signal (z-score),[11],-0.139
same,glycan array binding signal (z-score),[12],-0.097
same,glycan array binding signal (z-score),[13],1.97
same,glycan array binding signal (z-score),[14],3.91
same,glycan array binding signal (z-score),Fuc(a1-3)GlcNAc,-0.256
same,glycan array binding signal (z-score),[15],-0.281
same,glycan array binding signal (z-score),[16],-0.246
same,glycan array binding signal (z-score),[17],-0.188
same,glycan array binding signal (z-score),[18],-0.182
same,glycan array binding signal (z-score),[19],-0.306
same,glycan array binding signal (z-score),[20],-0.099
same,glycan array binding signal (z-score),[21],-0.279
same,glycan array binding signal (z-score),[22],-0.114
same,glycan array binding signal (z-score),[23],-0.142
same,glycan array binding signal (z-score),[24],-0.041
same,glycan array binding signal (z-score),[25],-0.177
same,glycan array binding signal (z-score),[26],2.36
same,glycan array binding signal (z-score),[27],1.98
same,glycan array binding signal (z-score),Fuc(a1-4)GlcNAc,-0.218
same,glycan array binding signal (z-score),Fuc(b1-3)GlcNAc,-0.235
same,glycan array binding signal (z-score),Gal(a1-2)Gal,-0.14
same,glycan array binding signal (z-score),Gal(a1-3)Gal,-0.157
same,glycan array binding signal (z-score),Gal(a1-3)Gal(b1-3)GlcNAc,-0.157
same,glycan array binding signal (z-score),Gal(a1-3)Gal(b1-4)Glc,-0.245
same,glycan array binding signal (z-score),Gal(a1-3)Gal(b1-4)GlcNAc,-0.249
same,glycan array binding signal (z-score),[28],-0.218
same,glycan array binding signal (z-score),[29],-0.196
